{"source": "PubChem BioAssay AID651820", "about": "(National Center for Advancing Translational Sciences (NCATS), 2012)", "note": "The campaign covered roughly 340,000 compounds. About 12,000 (3.5%) were called active. The shares of active, inactive and inconclusive entries below differ from those in the screen. Calls come from the whole dose curve; as a rule, active = well fitted inhibition curve with a large enough effect; inconclusive = small, poorly fitted or top-dose-only effect, or another doubt; inactive = no such curve, though single readings can be large or run the other way. No potency is given beside an inconclusive call; the fits are too rough. % is set by controls: 0 for no effect and ±100 for the full control effect; potency is the fitted concentration of half-maximal effect; tags give direction and shape of the fitted curve.", "data": [{"assay": "qHTS Assay for Inhibitors of Hepatitis C Virus (HCV)", "conditions": "Huh7.5.1 HCVcc-Cre (HCVcc is cell-culture hepatitis C virus) infection, luciferase reporter, 44 h; activity change, negative = inhibition: at 41.8 µM (top of the series) unless noted", "in_short": "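Cells (1,000/well) were plated 4 h before compound, then infected with HCVcc-Cre virus (~0.5 moi). After 44 h further culture, infection was read as luciferase luminescence following a 15 min substrate incubation at room temperature.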", "values": [{"smiles": "CCC(c1nnc(SCC(=O)Nc2cccc(S(N)(=O)=O)c2)n1Cc1ccccc1)N(C)C", "note": "(stereo not given)", "Potency": "inconclusive [inhibitor, single point]"}, {"smiles": "CCCCCCCN1C(Nc2ccccc2)=NC[C@@H]1Cc1ccccc1", "Potency": "inconclusive [inhibitor, single point]"}, {"smiles": "CN1C(=O)/C(=C/c2ccc(C(=O)Nc3ccc(O)cc3C(=O)O)cc2)SC1=S", "Potency": "inactive"}, {"smiles": "Cc1noc(C)c1CSCC(=O)Nc1ccc(S(=O)(=O)C(F)F)cc1", "Potency": "inconclusive [inhibitor, single point]"}, {"smiles": "COc1ccc(C2NC(=S)N(c3ccccc3)C(C)=C2C(=O)Nc2ccccc2)cc1", "note": "(stereo not given)", "Potency": "inconclusive [inhibitor, single point]"}, {"smiles": "CCN(CC(=O)Nc1ccc(OC)cc1)C(=O)c1oc2c(Cl)cccc2c1C", "Potency": "inconclusive [inhibitor, full curve, poor fit]"}, {"smiles": "C(=C\\c1nc2ccccc2[nH]1)/c1ccccc1", "Potency": "active: 11.2 µM"}, {"smiles": "Cc1cc(N/N=C/c2ccc(O)cc2O)nc(-n2nc(C)cc2C)n1", "Potency": "inconclusive [inhibitor, partial curve]"}, {"smiles": "CCOC(=O)C1CCCN(C(=O)CN2C(=O)c3ccccc3S2(=O)=O)C1", "note": "(stereo not given)", "Potency": "inactive"}, {"smiles": "COc1cc(C(CCN2CCCCC2)c2c(OC)cc(OC)c3c(C)cc(=O)oc23)cc(OC)c1OC", "note": "(stereo not given)", "Potency": "inconclusive [inhibitor, full curve, poor fit]"}, {"smiles": "CCc1nc(C)c(C(=O)N2CCCC(C(=O)Nc3cccc(-c4cccc(C)c4)c3)C2)o1", "note": "(stereo not given)", "Potency": "active: 11.2 µM"}, {"smiles": "COc1ccc(C(=O)CSc2nnc(-c3ccco3)n2C)cc1", "Potency": "inactive"}, {"smiles": "Nc1ccccc1C#CC(=O)c1ccccc1", "Potency": "inconclusive [inhibitor, single point]"}, {"smiles": "Cc1cccc(Nc2c3c(nc4ccccc24)CCC3)c1", "activity change, negative = inhibition": "inconclusive: -79.5% [inhibitor]"}, {"smiles": "CCCCNC(=O)Cn1cnc2c(cnn2-c2ccc(C)cc2)c1=O", "Potency": "inactive"}, {"smiles": "COc1cc(C(=O)NCC2CCCO2)ccc1OCc1ccc(Cl)cc1Cl", "note": "(stereo not given)", "Potency": "inconclusive [inhibitor, partial curve]"}, {"smiles": "O=C(CCc1nnc(C2CCCCC2)o1)N1CCN(C2CCCCC2)CC1", "Potency": "inactive"}, {"smiles": "CC(=O)N1N=C(c2cccs2)CC1c1cccc([N+](=O)[O-])c1", "note": "(stereo not given)", "Potency": "inconclusive [inhibitor, partial curve]"}, {"smiles": "Cc1cc(C)n(CCNC(=O)c2cc(COc3ccc4ncccc4c3)on2)n1", "Potency": "inconclusive [inhibitor, single point]"}, {"smiles": "COc1ccc(NC(=O)C2CC(=O)N(Cc3ccc(C)cc3)C2)cc1S(=O)(=O)N1CCCCC1", "note": "(stereo not given)", "Potency": "inconclusive [inhibitor, single point]"}, {"smiles": "COc1c(C)cc(Br)cc1C(=O)Nc1ccccc1C", "Potency": "inconclusive [inhibitor, single point]"}, {"smiles": "CC(C)CC1Nc2ncnc(N3CCN(c4ccccn4)CC3)c2N(Cc2ccc(Cl)cc2)C1=O", "note": "(stereo not given)", "Potency": "inconclusive [inhibitor, single point]"}, {"smiles": "Cc1ccccc1-n1nc(C)c(N=O)c1N", "Potency": "inactive"}, {"smiles": "CCOc1ccc(S(=O)(=O)N2CCC(C(=O)N3CCN(Cc4ccccc4)CC3)CC2)cc1", "Potency": "inconclusive [inhibitor, single point]"}, {"smiles": "Oc1ccc(-c2nccc(-c3cccs3)n2)cc1", "Potency": "inconclusive [inhibitor, single point]"}, {"smiles": "CCCN(CCC)CCCNC(=O)c1cc2c(=O)n(CC)c3ccccc3c2s1", "Potency": "active: 7.94 µM"}, {"smiles": "O=C(NCCc1ccc(Cl)cc1)c1ccc2nccnc2c1", "Potency": "inconclusive [inhibitor, single point]"}, {"smiles": "CNC(=O)c1c(NC(=O)c2ccco2)sc2c1CCCC2", "Potency": "active: 14.1 µM"}, {"smiles": "N#CC1(C#N)C(c2ccccc2)OC23CCCCC2C1(C#N)C(=N)O3", "note": "(stereo not given)", "Potency": "inactive"}, {"smiles": "C=CCOc1ccc(/C=N/NC(=O)C(C)Sc2ccccn2)cc1OC", "note": "(stereo not given)", "Potency": "inconclusive [inhibitor, single point]"}, {"smiles": "CS(=O)(=O)Nc1cccc2[nH]ncc12", "Potency": "inactive"}, {"smiles": "CCOCCCNC(=O)c1ccc2c(c1)ncn2-c1ccc(C)cc1C", "Potency": "inactive"}, {"smiles": "Clc1ccc2c(c1)c1ccccc1n2CN1CCOCC1", "Potency": "inconclusive [inhibitor, single point]"}, {"smiles": "O=C(CSc1ccc(F)cc1)Nc1nnc(-c2ccco2)o1", "Potency": "inactive"}, {"smiles": "CCOC(=O)c1ccc(Nc2nc(N)c3cc(OC)c(OC)cc3n2)cc1", "Potency": "inconclusive [inhibitor, single point]"}, {"smiles": "COc1ccc2c(c1)c(C(C)=O)c(C)n2CCc1ccc(OC)c(OC)c1", "Potency": "inconclusive [inhibitor, partial curve]"}, {"smiles": "O=C(CCC1CCCN(C(=O)CC2=CCCCC2)C1)N1CCN(c2ccccn2)CC1", "note": "(stereo not given)", "Potency": "inconclusive [inhibitor, single point]"}, {"smiles": "CCOC(=O)/C(C#N)=C/c1cc(C)n(-c2ccccc2)c1C", "Potency": "active: 31.6 µM"}, {"smiles": "COc1ccc([N+](=O)[O-])cc1NCc1ccco1", "Potency": "inconclusive [inhibitor, full curve]"}, {"smiles": "CCc1ccc(N=CC23c4ccccc4C(c4ccccc42)C2C(=O)N(c4ccc(OC)cc4)C(=O)C23)cc1", "note": "(stereo not given)", "Potency": "inconclusive [inhibitor, single point]"}, {"smiles": "CCNc1nc(C)nc2c1oc1ccccc12", "Potency": "inactive"}, {"smiles": "c1ccc(C2(CN3CCNC[C@H]3Cc3cccc4ccccc34)CC2)cc1", "Potency": "inconclusive [inhibitor, full curve]"}, {"smiles": "c1ccc2c(N3CCNCC3)nsc2c1", "Potency": "inconclusive [inhibitor, partial curve]"}, {"smiles": "N#C/C(=C/c1ccc(N2CCCCC2)o1)C(=O)Nc1ccc(Cl)cc1", "Potency": "inconclusive [inhibitor, full curve, poor fit]"}, {"smiles": "Cc1ccc(S(=O)(=O)Nc2ccc3c(c2)C(=O)N([C@H](C)CO)C[C@@H](C)[C@@H](CN(C)C(=O)Nc2cccc4ccccc24)O3)cc1", "Potency": "inconclusive [inhibitor, single point]"}, {"smiles": "COc1cc(/C=C2/C(=O)NN(c3ccc(F)cc3)C2=O)cc([N+](=O)[O-])c1O", "Potency": "inconclusive [inhibitor, single point]"}, {"smiles": "CC(NC(=O)c1cccc(S(=O)(=O)N(C)c2ccccc2)c1)c1cccnc1", "note": "(stereo not given)", "Potency": "inconclusive [inhibitor, single point]"}, {"smiles": "O=C(COC(=O)c1ccncc1)c1ccc(Cl)c(Cl)c1", "Potency": "inconclusive [inhibitor, single point]"}, {"smiles": "CCOc1ccc(NC(=O)c2nnn(CC(=O)Nc3ccccc3OCC)c2N)cc1", "Potency": "active: 11.2 µM"}, {"smiles": "Cc1ccc(NC(=O)c2ccc(Cl)c(S(=O)(=O)N3CCCC3)c2)nc1", "Potency": "inconclusive [inhibitor, single point]"}, {"smiles": "N#Cc1sc2nc(C3CC3)cc(-c3ccccc3)c2c1N", "Potency": "inconclusive [inhibitor, partial curve]"}, {"smiles": "Cc1cc(NC(=O)COn2nnc3ccc(S(C)(=O)=O)cc32)ccc1Br", "Potency": "active: 10 µM"}, {"smiles": "COc1cc2c(cc1OC)C(COc1ccc([N+](=O)[O-])cc1)NCC2", "note": "(stereo not given)", "Potency": "inconclusive [inhibitor, single point]"}, {"smiles": "CCOc1cc(C2NC(=O)c3ccccc3O2)ccc1OC(C)C", "note": "(stereo not given)", "Potency": "inactive"}, {"smiles": "O=C(O)C1CCCCC1C(=O)Nc1ccccc1C(=O)N1CCN(c2ccc(F)cc2)CC1", "note": "(stereo not given)", "Potency": "inactive"}, {"smiles": "COC1C=CC(CNC(=O)c2cc3c(=O)n4cccc(C)c4nc3n2C)(OC)O1", "note": "(stereo not given)", "Potency": "inactive"}, {"smiles": "FC(F)(F)c1cnc(Sc2ncn[nH]2)c(Cl)c1", "Potency": "inactive"}, {"smiles": "CNc1nc(-c2ccccn2)nnc1-c1ccccc1", "Potency": "inconclusive [inhibitor, single point]"}, {"smiles": "CCn1cc(C(=O)NCCCN2CCC(C)CC2)c(=O)c2cc(S(=O)(=O)N(C)C3CCCCC3)ccc21", "Potency": "inconclusive [inhibitor, single point]"}, {"smiles": "Cc1cccc(C(=O)Nc2ccc(C(=O)/C=C/c3cccs3)cc2)c1", "Potency": "inconclusive [inhibitor, partial curve]"}, {"smiles": "O=C(N/N=C/C1=C(N2CCOCC2)C(=C\\c2ccccc2)/CC1)Nc1ccccc1", "Potency": "inconclusive [inhibitor, single point]"}, {"smiles": "Cc1ccc(C(=O)OCN2C(=O)c3ccccc3C2=O)cc1S(=O)(=O)N1CCOCC1", "Potency": "inconclusive [inhibitor, single point]"}, {"smiles": "N#C/C(=C\\c1cccs1)C(=O)NCc1ccco1", "Potency": "inactive"}, {"smiles": "CC(C)(C)NCCC(O)c1cc(C(F)(F)F)nc2c(C(F)(F)F)cccc12", "note": "(stereo not given)", "Potency": "inconclusive [inhibitor, partial curve]"}, {"smiles": "O=C(CCCC(=O)N1CCN(c2ccc([N+](=O)[O-])cc2)CC1)c1ccccc1", "Potency": "inconclusive [inhibitor, single point]"}, {"smiles": "CCN(CC)CCN1CCn2c3c(c4cc(C)ccc42)CCCC31", "note": "(stereo not given)", "Potency": "active: 8.91 µM"}, {"smiles": "Oc1ccccc1C=NCCCCCCN=Cc1ccccc1O", "Potency": "inactive"}, {"smiles": "Cc1cccc(OCC(=O)Nc2ccccc2N2CCCCC2)c1C", "Potency": "inconclusive [inhibitor, single point]"}, {"smiles": "COc1ccc2[nH]c3c(c2c1)CCN1C(=O)C(CC(=O)NCCCN(C)C)C[C@H](C(=O)N2CCCCC2)[C@@]31CCc1ccccc1", "note": "(stereo not given in full)", "Potency": "inconclusive [inhibitor, single point]"}, {"smiles": "CCCOc1ccc(C(F)(F)F)cc1NC(=O)C1CC(=O)N(Cc2ccco2)C1", "note": "(stereo not given)", "Potency": "inconclusive [inhibitor, partial curve]"}]}]}
